# Results reported in article PMC9911399, “Two distinct binding modes provide the RNA-binding protein RbFox with extraordinary sequence specificity”.
# Positions count from the first letter of the chain named. This is one part of the list.
# T1: RBFOX1 RRM (Homo sapiens, UniProt Q9NWB1 109-208)
# T1 sequence: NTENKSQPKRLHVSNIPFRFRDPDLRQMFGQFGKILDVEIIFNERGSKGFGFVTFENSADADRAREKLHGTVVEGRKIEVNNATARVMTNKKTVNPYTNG
# B1: AACUAAU (DNA:RNA)
# RNA: GGGAGACCGGAAUUCAGAUUGUCCAACUAAUUUAAAUCCCGUCGUAGCCACCA
# DNA 1: CAATCTGAATTCCGGTCTCCC
# DNA 2: TGGTGGCTACGACGGGATT
# B2: GUAUAAU (DNA:RNA)
# RNA: B1 RNA with A25G, A26U, C27A
# DNA 1: CAATCTGAATTCCGGTCTCCC
# DNA 2: TGGTGGCTACGACGGGATT
# B3: CCAUAAA (DNA:RNA)
# RNA: B1 RNA with A25C, A26C, C27A, U31A
# DNA 1: CAATCTGAATTCCGGTCTCCC
# DNA 2: TGGTGGCTACGACGGGATT
# B4: GAGAUUU (DNA:RNA)
# RNA: B1 RNA with A25G, C27G, U28A, A29U, A30U
# DNA 1: CAATCTGAATTCCGGTCTCCC
# DNA 2: TGGTGGCTACGACGGGATT
# B5: UGUACGA (DNA:RNA)
# RNA: GGGAGACCGGAAUUCAGAUUGUCCUGUACGAUUAAAUCCCGUCGUAGCCACCA
# DNA 1: CAATCTGAATTCCGGTCTCCC
# DNA 2: TGGTGGCTACGACGGGATT
# B6: ACAUGGA (DNA:RNA)
# RNA: B1 RNA with A26C, C27A, A29G, A30G, U31A
# DNA 1: CAATCTGAATTCCGGTCTCCC
# DNA 2: TGGTGGCTACGACGGGATT
# B7: UUAGCGA (DNA:RNA)
# RNA: B5 RNA with G26U, U27A, A28G
# DNA 1: CAATCTGAATTCCGGTCTCCC
# DNA 2: TGGTGGCTACGACGGGATT
# B8: GUGCCAG (DNA:RNA)
# RNA: B1 RNA with A25G, A26U, C27G, U28C, A29C, U31G
# DNA 1: CAATCTGAATTCCGGTCTCCC
# DNA 2: TGGTGGCTACGACGGGATT
# B9: GAACCGU (DNA:RNA)
# RNA: B1 RNA with A25G, C27A, U28C, A29C, A30G
# DNA 1: CAATCTGAATTCCGGTCTCCC
# DNA 2: TGGTGGCTACGACGGGATT
# B10: UGUGUAG (DNA:RNA)
# RNA: B5 RNA with A28G, C29U, G30A, A31G
# DNA 1: CAATCTGAATTCCGGTCTCCC
# DNA 2: TGGTGGCTACGACGGGATT
# B11: AUCGUAA (DNA:RNA)
# RNA: B1 RNA with A26U, U28G, A29U, U31A
# DNA 1: CAATCTGAATTCCGGTCTCCC
# DNA 2: TGGTGGCTACGACGGGATT
# B12: CAGCAAU (DNA:RNA)
# RNA: B1 RNA with A25C, C27G, U28C
# DNA 1: CAATCTGAATTCCGGTCTCCC
# DNA 2: TGGTGGCTACGACGGGATT
# B13: UUCGAGA (DNA:RNA)
# RNA: B5 RNA with G26U, U27C, A28G, C29A
# DNA 1: CAATCTGAATTCCGGTCTCCC
# DNA 2: TGGTGGCTACGACGGGATT
# B14: CUCGCCU (DNA:RNA)
# RNA: B1 RNA with A25C, A26U, U28G, A29C, A30C
# DNA 1: CAATCTGAATTCCGGTCTCCC
# DNA 2: TGGTGGCTACGACGGGATT
# B15: UCCACGA (DNA:RNA)
# RNA: B5 RNA with G26C, U27C
# DNA 1: CAATCTGAATTCCGGTCTCCC
# DNA 2: TGGTGGCTACGACGGGATT
# B16: ACCUCGU (DNA:RNA)
# RNA: B1 RNA with A26C, A29C, A30G
# DNA 1: CAATCTGAATTCCGGTCTCCC
# DNA 2: TGGTGGCTACGACGGGATT
# B17: GUUGUCU (DNA:RNA)
# RNA: B1 RNA with A25G, A26U, C27U, U28G, A29U, A30C
# DNA 1: CAATCTGAATTCCGGTCTCCC
# DNA 2: TGGTGGCTACGACGGGATT
# B18: GAGUAUC (DNA:RNA)
# RNA: B1 RNA with A25G, C27G, A30U, U31C
# DNA 1: CAATCTGAATTCCGGTCTCCC
# DNA 2: TGGTGGCTACGACGGGATT
# B19: ACGUCCG (DNA:RNA)
# RNA: B1 RNA with A26C, C27G, A29C, A30C, U31G
# DNA 1: CAATCTGAATTCCGGTCTCCC
# DNA 2: TGGTGGCTACGACGGGATT
# B20: AUUCCAG (DNA:RNA)
# RNA: B1 RNA with A26U, C27U, U28C, A29C, U31G
# DNA 1: CAATCTGAATTCCGGTCTCCC
# DNA 2: TGGTGGCTACGACGGGATT
# B21: UUCCGAA (DNA:RNA)
# RNA: B1 RNA with A25U, A26U, U28C, A29G, U31A
# DNA 1: CAATCTGAATTCCGGTCTCCC
# DNA 2: TGGTGGCTACGACGGGATT
# B22: UUCGUUA (DNA:RNA)
# RNA: B5 RNA with G26U, U27C, A28G, C29U, G30U
# DNA 1: CAATCTGAATTCCGGTCTCCC
# DNA 2: TGGTGGCTACGACGGGATT
# B23: UUUCCCC (DNA:RNA)
# RNA: B5 RNA with G26U, A28C, G30C, A31C
# DNA 1: CAATCTGAATTCCGGTCTCCC
# DNA 2: TGGTGGCTACGACGGGATT
# B24: CCGAAGA (DNA:RNA)
# RNA: B5 RNA with U25C, G26C, U27G, C29A
# DNA 1: CAATCTGAATTCCGGTCTCCC
# DNA 2: TGGTGGCTACGACGGGATT
# B25: UUGCACA (DNA:RNA)
# RNA: B5 RNA with G26U, U27G, A28C, C29A, G30C
# DNA 1: CAATCTGAATTCCGGTCTCCC
# DNA 2: TGGTGGCTACGACGGGATT
# B26: ACCUAUC (DNA:RNA)
# RNA: B1 RNA with A26C, A30U, U31C
# DNA 1: CAATCTGAATTCCGGTCTCCC
# DNA 2: TGGTGGCTACGACGGGATT
# B27: UCCUUGG (DNA:RNA)
# RNA: B1 RNA with A25U, A26C, A29U, A30G, U31G
# DNA 1: CAATCTGAATTCCGGTCTCCC
# DNA 2: TGGTGGCTACGACGGGATT
# B28: UAGCCCC (DNA:RNA)
# RNA: B5 RNA with G26A, U27G, A28C, G30C, A31C
# DNA 1: CAATCTGAATTCCGGTCTCCC
# DNA 2: TGGTGGCTACGACGGGATT
# B29: CUCAGAU (DNA:RNA)
# RNA: B1 RNA with A25C, A26U, U28A, A29G
# DNA 1: CAATCTGAATTCCGGTCTCCC
# DNA 2: TGGTGGCTACGACGGGATT
# B30: UACACAU (DNA:RNA)
# RNA: B1 RNA with A25U, U28A, A29C
# DNA 1: CAATCTGAATTCCGGTCTCCC
# DNA 2: TGGTGGCTACGACGGGATT
# B31: UACACCG (DNA:RNA)
# RNA: B5 RNA with G26A, U27C, G30C, A31G
# DNA 1: CAATCTGAATTCCGGTCTCCC
# DNA 2: TGGTGGCTACGACGGGATT
# Target: T1, RBFOX1 RRM
# Experiment: EMSA; HiTS-Eq, 1 nM pool, 10 min; buffer printed only for the single-RNA assays: 10 mM Tris pH 7.5, 150 mM NaCl, 3.4 mM EDTA, 0.001% NP-40, 30 C
# Conditions: tags: His6 N-terminal (pET28a); label: 5' 32P
# Outline: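 These values rest on relative association constants, computed from read-count changes of each RNA species versus the control reaction and normalised to the cognate motif. Reads came from free RNA recovered by 8% native PAGE after purified RbFox RRM (wild type or mutant) at increasing concentrations was equilibrated for 10 min in 50 µL with 1 nM of a 5′-radiolabelled pool with 7 randomized nucleotides and DNA-annealed flanks.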
row,Binder,binding signal
1,B1,0.000777 KA relative to UGCAUGU
2,B2,0.00264 KA relative to UGCAUGU
3,B3,0.000634 KA relative to UGCAUGU
4,B4,0.0136 KA relative to UGCAUGU
5,B5,0.0149 KA relative to UGCAUGU
6,B6,0.00217 KA relative to UGCAUGU
7,B7,0.0093 KA relative to UGCAUGU
8,B8,0.0231 KA relative to UGCAUGU
9,B9,0.00528 KA relative to UGCAUGU
10,B10,0.018 KA relative to UGCAUGU
11,B11,0.00185 KA relative to UGCAUGU
12,B12,0.00394 KA relative to UGCAUGU
13,B13,0.0113 KA relative to UGCAUGU
14,B14,0.00873 KA relative to UGCAUGU
15,B15,0.00471 KA relative to UGCAUGU
16,B16,0.00254 KA relative to UGCAUGU

row,Binder,binding signal
1,B17,0.018 KA relative to UGCAUGU
2,B18,0.00982 KA relative to UGCAUGU
3,B19,0.0111 KA relative to UGCAUGU
4,B20,0.00095 KA relative to UGCAUGU
5,B21,0.0104 KA relative to UGCAUGU
6,B22,0.00765 KA relative to UGCAUGU
7,B23,0.00464 KA relative to UGCAUGU
8,B24,0.00865 KA relative to UGCAUGU
9,B25,0.0164 KA relative to UGCAUGU
10,B26,0.0021 KA relative to UGCAUGU
11,B27,0.0132 KA relative to UGCAUGU
12,B28,0.00616 KA relative to UGCAUGU
13,B29,0.00677 KA relative to UGCAUGU
14,B30,0.000378 KA relative to UGCAUGU
15,B31,0.00458 KA relative to UGCAUGU
